Results taken from PubChem BioAssay AID1508624 (National Center for Advancing Translational Sciences (NCATS), 2021).
About 120 (0.25%) of roughly 48,000 compounds were called active. Inconclusive results (about 4%) are left out. Calls come from the whole dose curve; as a rule, active = well fitted activation curve with a large enough effect; inconclusive = small, poorly fitted or top-dose-only effect, or another doubt; inactive = no such curve, though single readings can be large or run the other way. The list shows a part of the results.

Experiment: Primary qHTS for Identification of Small Molecule Activators of Huntingtin-Antisense Promoter Activity; note: nearly all actives have a fitted effect of over 55% in size
Details: HEK293 HTT-AS promoter firefly luciferase reporter, 24 h; series mostly up to 57.5 µM; activity change, positive = activation: at the top concentration
Method in brief: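 HEK293 Fluc reporter, 2,500 cells/well, 24 h pre-culture; cpds up to 57.5 uM final, 24 h 37 degrees C; Dual-Glo, 10 min RT; normalized vehicle = 0%, zero RLU = -100%.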

Activity change, positive = activation, inactive:
COc1ccc2c(c1)c1c(c(=O)n(-c3ccccc3C)c(=O)n1Cc1ccccc1C)n2C -5.81%
CCCCNc1sc(S(=O)(=O)CC)nc1S(=O)(=O)c1ccc(C)cc1 -19.9%
CNS(=O)(=O)c1cn(CC(=O)Nc2ccc(F)cc2F)cc1S(=O)(=O)NC -13.2%
Cc1ccc(N2CC(c3nnc(Cc4ccc(Cl)cc4)o3)CC2=O)cc1 (stereo not given) -24.9%
CC(=O)Nc1cc(C(=O)NCc2ccccc2)ccc1Sc1ccc(C)cc1 -19.5%
Cc1cccc(N2CCN(C(=O)Cn3c(=O)c4cccn4c4ccc(F)cc43)CC2C)c1 (stereo not given) -26.4%
Cc1ccc(CNC(=O)C(C(C)C)N2Cc3ccccc3C2=O)cc1 (stereo not given) -25.8%
Cc1cccc(C(=O)Nc2ccc(-c3nc4ccccc4s3)c(C)c2)c1 18.8%
CO[C@H]1C[C@@H]2CC[C@@H](C)[C@@](O)(O2)C(=O)C(=O)N2CCCC[C@@H]2C(=O)O[C@H]([C@H](C)C[C@@H]2CC[C@H](OC(=O)C(C)(CO)CO)[C@H](OC)C2)CC(=O)[C@H](C)C=C(C)[C@@H](O)[C@@H](OC)C(=O)[C@H](C)C[C@H](C)C=CC=CC=C1C -21.4%
CCN(c1ccc(OC)cc1)S(=O)(=O)c1c(C(=O)N2CCCCCC2)c(C)n(C)c1C -4.19%
COc1ccc(N2CCN(CC(O)COc3ccccc3C(C)(C)C)CC2)cc1 (stereo not given) 0.371% [at 11.5 µM, percent change from vehicle, -100% = no light]
O=C(NC1CCCCC1)c1ccc(Cn2c(SCc3cccc(F)c3)nc3cccnc32)cc1 -25.7%
CN(C(=O)CSc1cn(CC(=O)N2CCCCCC2)c2ccccc12)c1ccccc1 -24.9%
NC(=NCCCCCCN=C(N)N=C(N)Nc1ccc(Cl)cc1)N=C(N)Nc1ccc(Cl)cc1 -8.49%
COc1ccccc1CNC(=O)c1cn(C)c2ccc(S(=O)(=O)N3CCC(C)CC3)cc2c1=O 10.4% [at 11.5 µM, percent change from vehicle, -100% = no light]
Cc1c(F)cccc1NC(=O)C1CCCN1S(=O)(=O)c1ccc(F)cc1 (stereo not given) -13.6%
Cc1ccc(NC(=O)C2CCCN(S(=O)(=O)c3cccc4cccnc34)C2)cc1Cl (stereo not given) -22.4%
Cc1ccc(C(=O)Nc2cccc(C(=O)OCc3cc(=O)n4c5c(sc4n3)CCCC5)c2)cc1 -31.3%
COc1cc(OC)c(NC(=O)c2ccc3nc(C(C)C)oc3c2)cc1Cl -73.1%
Cc1ccc2[nH]cc(C(c3ccccc3)c3cccs3)c2c1 (stereo not given) -36.8%
O=C(c1ccc2c(c1)OCO2)c1cn(Cc2ccc(F)cc2)c2ccccc2c1=O -25.2%
Cn1nc(C(=O)N2CCN(c3ccccc3)CC2)c2c1-c1ccccc1SC2 -9.95%
CCCCN(CC)C(=O)Cn1c(=O)n(-c2ccc(OCC)cc2)c(=O)c2c3c(sc21)CCC3 -27.7%
CC(=O)c1cccc(-n2c(=O)c3c4c(sc3n(Cc3ccccc3Cl)c2=O)CN(C(C)=O)CC4)c1 -4.36%
CCCOC(=O)c1c(NC(=O)c2nc3ncccn3n2)sc(C(=O)OCC)c1C 13.8%
Cc1ccc(C2CCN(C(=O)c3cnn(-c4ccccc4Cl)c3C3CCN(C(=O)OC(C)(C)C)CC3)C2)cc1 (stereo not given) -42.3%
COc1cc(OC)c(C2C=C(C(=O)O)Nc3ncnn32)cc1OC (stereo not given) -14.8%
O=C(Cn1c(-c2cccs2)cc2cc(Cl)ccc21)NCc1ccccc1 -26.7%
CCCSc1nc(=O)c2c(n1C)NC(=O)CC2c1cccc(F)c1F (stereo not given) -7.21%
CCc1ccccc1NC(=O)CN(Cc1ccccc1)S(=O)(=O)c1ccc2nc(C)sc2c1 -15.1%
CCOC(=O)c1c(NC(=O)CCCOc2ccc(C(C)(C)C)cc2)sc2c1CCC2 2.43%
COc1ccc(N2CCN(C(=O)Cc3c(C(=O)O)c(C)cn3C)CC2)cc1 -17.2%
COc1ccc(-n2nc3ccc(NC(=O)COc4ccc(C)c(C)c4)cc3n2)cc1 -8.76%
Cc1cccc(NC(=O)Cn2cc(S(=O)(=O)c3ccc(F)cc3)c(=O)c3cc4c(cc32)OCO4)c1 -12.5%
CC(C)Oc1ccc(C(=O)N[C@H](CNC(=O)CN(C)C)Cc2ccc(-c3cn4cccc([C@H](C)O)c4n3)cc2)cc1Cl -32.1%
Cc1ccc(-c2c(C(=O)N3CCN(c4cccc(C)c4C)CC3)oc(=O)c3ccccc23)cc1 -37.3%
CC(=O)c1cccc(NC(=O)c2cnn(-c3cccc(C)c3)c2-n2cccc2)c1 -2.29%
CCC(=O)N1CCc2cc(Br)cc(S(=O)(=O)NCCc3ccccc3Cl)c21 -35.6%
Cc1ccc(C)c(NC(=O)N2CC=C(c3c[nH]c4ccccc34)CC2)c1 -12%
Cc1cc(C)c(NC(=O)CSc2nc(C)cc(C)c2C#N)c(C)c1 -8.68%
O=C(CN1Cc2ccccc2C1=O)Nc1cc(F)ccc1F 2.54%
Cc1cccc(N(C)C(=O)C(Cc2ccccc2)NS(=O)(=O)c2cccc3nsnc23)c1 (stereo not given) -17.2%
COc1ccc(Nc2ccc3cc(S(=O)(=O)N4CCCC4)ccc3n2)cc1Cl -31.1%
COc1ccccc1OCC(=O)N(Cc1ccc(N(C)C)cc1)CC1CCCO1 (stereo not given) -11.3%
Cc1ccc2oc(=O)c3cnn(CC(=O)N(C)c4ccc(F)cc4)c3c2c1 -5.3%
CC(=O)c1ccc(NC(=O)C2CCN(S(=O)(=O)c3ccc4c(c3)CCCN4C(=O)C3CCC3)CC2)cc1 9.37%
CCOc1ccc(-n2c(SCC(=O)Nc3ccccc3OC)nc3c(oc4ccccc43)c2=O)cc1 -16.8%
Cc1noc(/C=C/c2ccco2)c1S(=O)(=O)N1CCC(C(=O)Nc2ccc(F)cc2F)CC1 -22.7%
Cc1ccc(OCC(=O)Nc2ccc3nc(SCc4ccccc4)sc3c2)cc1 -2.85%
CCCCN(Cc1ccccc1)C(=O)CN(C)S(=O)(=O)c1ccc2c(c1)c(=O)n(C)c(=O)n2C -9.06%
O=C(Nc1cc(C(F)(F)F)ccc1Cl)c1cc(S(=O)(=O)NCc2ccccc2)ccc1F -28.5%
CCOC(=O)c1cccc(NC(=O)Cn2c(=O)nc(-c3ccccc3)c3ccccc32)c1 -11.2%
CCc1cc2c(cc3c(=O)n(CCCC(=O)NCc4ccccc4Cl)nc(CC)n32)s1 -2.63%
Cc1cccc(OCc2ccc(-c3nc(C#N)c(N4CCC(C(N)=O)CC4)o3)o2)c1 -1.82%
COCCCNC(=O)CC(c1cc(OC)c(OC)c(OC)c1)N1Cc2ccccc2C1=O (stereo not given) -7.36%
COc1ccc(NC(=O)C(Cc2ccccc2)NS(=O)(=O)c2ccc(Br)s2)cc1OC (stereo not given) -12.1%
COc1ccc(OC)c(CCNC(=O)c2cc3c(-c4ccccc4F)nn(C)c3s2)c1 -48.6%
O=C(O)COC(=O)Cc1ccccc1Nc1c(Cl)cccc1Cl -0.645%
CCOc1cc(C(=O)Nc2ccc3oc(-c4ccc(CC)cc4)nc3c2)cc(OCC)c1OCC -40.5%
COc1ccccc1CCNC(=O)CCn1c(=O)c2cccn2c2ccc(F)cc21 -15.5%
Cc1cc(C)cc(NC(=O)CSCn2nnc3c(=O)[nH]c(Cc4ccc(F)cc4)nc32)c1 4.27%
COc1ccc(CCNC(=O)CCc2c(C)nc3cc(-c4ccccc4)nn3c2C)cc1OC -81.8%
Cc1ccc(-c2noc(CCC(=O)Nc3ccc(F)cc3Cl)n2)cc1 -8.88%
Cc1nn(C)c2c1c(-c1ccccc1)cc(=O)n2Cc1ccccc1F -13.3%
Cc1c(Cl)cccc1NC(=O)N1CCN(Cc2cc(=O)n3nc(-c4ccccc4F)sc3n2)CC1 0.142%
NC(=O)CSc1ncc2c(n1)-c1ccccc1N(Cc1ccccc1)S2(=O)=O 16.7%
COc1ccc(NS(=O)(=O)c2ccc3c(c2)CCN3C(=O)C2CC2)cc1OC -90.7%
Cc1cc(C)c2c(=O)cc(C(=O)NCCc3ccc(S(N)(=O)=O)cc3)oc2c1 -18.4%
COc1cccc(CNC(=O)Cn2c(=O)c3cccn3c3ccc(F)cc32)c1OC -2.27%
Cc1ccccc1CNC(=O)C(=O)NCC(c1ccco1)S(=O)(=O)c1ccc(F)cc1 (stereo not given) -17.9%
CCC(C)NC(=O)Cn1ncc2c(C)n(Cc3ccc(F)cc3)c(C)c2c1=O (stereo not given) -0.544%
CCc1ccc(CNC(=O)c2nn(-c3ccc(C)c(C)c3)nc2CO)cc1 -19.4%
Cc1ccc2c(=O)cc(C(=O)Nc3sc4c(c3C(=O)NCc3ccco3)CCCC4)oc2c1C 1.17%
Cc1ccc2c(CNCc3cccs3)c(C(=O)O)n(Cc3ccc(F)cc3)c2c1 -37.3%
COC(=O)c1ccc(Cn2c(=O)cc(C)c3c(C)nn(C)c32)cc1 -37.8%
CCOc1ccc(Sc2cc(C(=O)NCc3ccc(F)cc3)c3ccccc3n2)cc1 -37.6%
CC(=O)CSc1nc(-c2ccccc2)[nH]c1S(=O)(=O)c1ccc(C)cc1 -13.4%
CCn1cc(C(=O)N2CCN(c3ccccc3)CC2)c(=O)c2cc(S(=O)(=O)N(C)C3CCCCC3)ccc21 0.867%
CN(C)c1ccc(C(CNC(=O)COc2ccccc2)N2CCOCC2)cc1 (stereo not given) -6.9%
Cc1cnc(NC(=O)C2=C(O)c3ccccc3S(=O)(=O)N2C)s1
O=C(CN1C(=O)CCSc2ccc(S(=O)(=O)N3CCCC3)cc21)Nc1cccc(Cl)c1 -3.79%
CCN(CC)S(=O)(=O)c1ccc2c(c1)N(CC(=O)NCc1ccccc1)C(=O)CS2 -16.4%
COc1cc(Cl)c(C)cc1NC(=O)CSc1cc(=O)n(C)c2cc(Cl)ccc12 11.5%
Cn1ncc2c(NCc3cccc(Cl)c3)ncnc21 -21.7%
CCOc1ccc(NC(=O)Nc2c(C)n(C)n(-c3ccccc3)c2=O)cc1 -6.78%
Cc1cc(C)n2nc(CNC(=O)c3cccc(Cl)c3)nc2n1 -11.4%
CSc1ccc(CCNC(=O)C(C)n2nc(C)c3c(C)n(-c4ccccc4)nc3c2=O)cc1 (stereo not given) -8.04%
Cc1cccc(CNC(=O)c2ccc(-c3nc(CS(=O)(=O)c4ccccc4)c(C)o3)cc2)c1 -18.4%
Cc1ccc(CCNC(=O)Cn2nc(C)c3c(C)n(-c4ccc(C)cc4)nc3c2=O)cc1 -44.6%
Cc1ccc(NC(=O)COc2ccc3oc4c(c3c2)CCCC4)c(C)c1 -11.6%
